# Measurements taken from PubChem BioAssay (Tox21).
# Where “and” joins values, the source holds several entries; their conditions need not be identical. Equal values may be shown once. The shares of active, inactive and inconclusive entries below differ from those in the screen. For part of these data: Potencies beside an inconclusive call are fits to weak or partial responses and may not hold up. Calls of active or inactive are those of the source. Unless noted, the call rests on the fitted dose curve; in most records, active means well fitted cell-killing curve with a large enough effect in the repeat runs; inconclusive means weak or mixed curves, or effect the other way; inactive means no such curve, though single readings can be large or run the other way.
# Columns and labels:
# [1] = qHTS assay to identify small molecule agonists of the farnesoid-X-receptor (FXR) signaling pathway - cell viability counter screen (AID 743218); conditions: FXR-bla HEK293T viability, CellTiter-Glo luminescence, 16 h; viability change, negative = cytotoxic: at 62.6 µM (top of the series) unless noted; further: nearly all actives have a fitted effect of over 45% in size; further: potency means the concentration at half of the fitted maximal effect; on viability change, negative = cytotoxic: on the % scale 0 is the no-effect control and ±100 the full control effect
# Procedure, shortened: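 Same-well cytotoxicity check on FXR-UAS-bla HEK 293T cells: 5 h attachment, 16 h compound at 37 C, CellTiter-Glo luminescence read at room temperature after 30 min.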
# [2] = qHTS assay to identify small molecule agonists of the NFkB signaling pathway (AID 1159509; active means well fitted curve in the direction sought with a large enough effect in the signal ratio in the repeat runs, not every such curve was filed as active; inconclusive means weak or mixed curves, or a change in a side signal; inactive means no such curve, though single readings can be large or run the other way; the % refers to the signal ratio; further: potency means the concentration at half of the fitted maximal effect; on activation: on the % scale 0 is the no-effect control and ±100 the full control effect); conditions: NFkB-bla ME-180 cells, beta-lactamase FRET ratio, 5 h; activation: at 61 µM (top of the series) unless noted
# Procedure, shortened: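 Agonist activity was read as beta-lactamase-driven FRET change (460 and 530 nm emission, 405 nm excitation) following 1.5 hr substrate loading at room temperature. Beforehand, ME-180 NFkB-bla reporter cells were treated with compounds for 5 hr at 37 C.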
# [3] = qHTS assay to identify small molecule agonists of the endoplasmic reticulum stress response signaling pathway (AID 1159516; active means well fitted activation curve with a large enough effect in the signal ratio in the repeat runs, not every such curve was filed as active; inconclusive means weak or mixed curves, or effect the other way; the % refers to the signal ratio; further: potency means the concentration at half of the fitted maximal effect); conditions: ESRE-bla HeLa, ER stress beta-lactamase reporter, 5 h; activation: at 61 µM (top of the series) unless noted
# Procedure, shortened: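 For this screen, HeLa cells stably carrying beta-lactamase under the ER stress response element received test compounds, positive controls or DMSO for 5 hr at 37 C; B/G FRET substrate was then added and dual-wavelength emission recorded.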
# [4] = molecular target: Bile acid receptor (Homo sapiens) (UniProt Q96RI1); experiment: qHTS assay to identify small molecule agonists of the farnesoid-X-receptor (FXR) signaling pathway (AID 743220; active means well fitted activation curve with a large enough effect in the signal ratio in the repeat runs, not every such curve was filed as active; inconclusive means weak or mixed curves, or effect the other way; the % refers to the signal ratio; further: on the % scale 0 is the no-effect control and ±100 the full control effect); conditions: HEK293T FXR-UAS-bla, beta-lactamase FRET ratio, 16 h; activation: at 62.6 µM (top of the series) unless noted
# Procedure, shortened: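 FXR-UAS-bla HEK 293T cells carrying a UAS-driven beta-lactamase reporter were plated for 5 h at 37C/5% CO2, then exposed to DMSO-dissolved Tox21 10K compounds for 16 h at 37C. A LiveBLAzer B/G FRET substrate was loaded for 2 h at room temperature before fluorescence reading.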
# [5] = molecular target: Vitamin D3 receptor (Homo sapiens) (UniProt P11473); experiment: qHTS assay to identify small molecule agonists of the vitamin D receptor (VDR) signaling pathway (AID 743222; calls by dose curve; further: potency means the concentration at half of the fitted maximal effect; on activation: on the % scale 0 is the no-effect control and ±100 the full control effect); conditions: HEK293T VDR-UAS-bla, beta-lactamase FRET ratio, 16 h; activation: at 63.5 µM (top of the series) unless noted
# Procedure, shortened: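 Using LiveBLAzer B/G FRET detection, agonism was scored in VDR-bla cells exposed overnight (16 h, 37C) to DMSO-dissolved compounds; substrate incubation was 2 h at room temperature.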
# [6] = molecular target: Vitamin D3 receptor (Homo sapiens) (UniProt P11473); experiment: qHTS assay to identify small molecule antagonists of the vitamin D receptor (VDR) signaling pathway (AID 743223; active means well fitted inhibition curve with a large enough effect in the signal ratio in the repeat runs, not every such curve was filed as active; inconclusive means weak or mixed curves, or effect the other way; inactive means no such curve, though single readings can be large or run the other way; the % refers to the signal ratio; further: potency means the concentration at half of the fitted maximal effect); conditions: VDR-UAS-bla HEK293T, beta-lactamase FRET ratio, 16 h; activity change, negative = inhibition: at 61 µM (top of the series) unless noted
# Procedure, shortened: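 Antagonist mode uses 1alpha,25-dihydroxyvitamin D3 at 3 nM final as stimulus. VDR-bla cells receive compounds in DMSO, incubate 16 h at 37C, then a beta-lactamase FRET substrate for 2 h at room temperature before fluorescence measurement.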
# [7] = qHTS assay to identify small molecule antagonists of the farnesoid-X-receptor (FXR) signaling pathway - cell viability counter screen (AID 743221; active means well fitted cell-killing curve with a large enough effect in the repeat runs, not every such curve was filed as active; inconclusive means weak or mixed curves, or effect the other way; inactive means no such curve, though single readings can be large or run the other way; further: potency means the concentration at half of the fitted maximal effect; nearly all actives have a fitted effect of over 50% in size); conditions: FXR-bla HEK293T viability, CellTiter-Glo luminescence, 16 h; activity change, negative = cytotoxicity: at 62.6 µM (top of the series) unless noted
# Procedure, shortened: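 Luminescence from CellTiter-Glo measures cytotoxicity in GeneBLAzer FXR-UAS-bla HEK 293T cells. Cells were exposed to compounds with 50 uM chenodeoxycholic acid (final) for 16 h at 37 C, in wells also used for the reporter readout.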
# Tags describe the fitted curve by direction and shape or compound fluorescence and quenching.
# Sequence of UniProt P11473 (P11473 whole entry, looked up): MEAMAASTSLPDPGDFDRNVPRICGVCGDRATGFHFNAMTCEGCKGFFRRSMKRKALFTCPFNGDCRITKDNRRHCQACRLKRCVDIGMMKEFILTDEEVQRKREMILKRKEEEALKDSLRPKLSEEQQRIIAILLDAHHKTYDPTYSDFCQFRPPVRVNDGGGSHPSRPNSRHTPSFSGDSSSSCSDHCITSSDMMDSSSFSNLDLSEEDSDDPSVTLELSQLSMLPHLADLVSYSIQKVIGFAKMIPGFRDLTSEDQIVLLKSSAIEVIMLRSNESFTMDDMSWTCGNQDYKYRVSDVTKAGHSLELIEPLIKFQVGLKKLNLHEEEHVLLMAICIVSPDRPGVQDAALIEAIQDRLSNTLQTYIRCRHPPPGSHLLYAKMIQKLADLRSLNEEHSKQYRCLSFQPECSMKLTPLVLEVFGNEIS
# Sequence of UniProt Q96RI1 (Q96RI1 whole entry, looked up): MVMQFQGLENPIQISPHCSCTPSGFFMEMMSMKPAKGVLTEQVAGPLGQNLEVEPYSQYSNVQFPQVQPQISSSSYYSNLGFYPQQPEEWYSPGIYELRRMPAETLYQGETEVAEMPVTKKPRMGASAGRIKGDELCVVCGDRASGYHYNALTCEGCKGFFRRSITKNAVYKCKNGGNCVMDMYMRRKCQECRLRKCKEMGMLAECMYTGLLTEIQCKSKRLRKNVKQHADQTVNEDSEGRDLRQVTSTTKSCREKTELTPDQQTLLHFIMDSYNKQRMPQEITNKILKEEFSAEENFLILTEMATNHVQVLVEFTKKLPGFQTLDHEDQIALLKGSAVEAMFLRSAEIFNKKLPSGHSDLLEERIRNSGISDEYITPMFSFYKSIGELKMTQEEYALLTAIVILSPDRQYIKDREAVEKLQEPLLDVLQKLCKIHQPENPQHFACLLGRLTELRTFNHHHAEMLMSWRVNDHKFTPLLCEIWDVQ
smiles,measurement,setting,value
O=S(=O)(Oc1ccc(Cl)cc1)c1ccc(Cl)cc1,Potency,[1],"inconclusive: 27.9 µM [rising, partial curve]"
same,Potency,[2],"inconclusive: 34.7 µM [falling, partial curve, poor fit]"
same,Potency,[3],"inconclusive: 0.0014 µM [falling, partial curve, poor fit]"
CCOP(=S)(OCC)O/N=C(\C#N)c1ccccc1,Potency,[2],"inconclusive: 54.9 µM [falling, single point]"
same,Potency,[3],"inconclusive: 54.9 µM [falling, single point]"
CNP(=O)(OC)Oc1ccc(C(C)(C)C)cc1Cl (stereo unspecified),Potency,[1],inactive
same,Potency,[2],inactive
same,Potency,[3],"inconclusive: 11 µM [falling, partial curve, poor fit]"
CN(C)c1ccc(C(=O)c2ccc(N(C)C)cc2)cc1,Potency,[1],"inconclusive: 21.7 µM [rising, full curve, poor fit]"
same,activation,[4],inconclusive: 5.17%
same,Potency,[5],"inactive and inconclusive: 24.5 µM [fluorescent, partial curve, poor fit]"
same,Potency,[6],"inconclusive: 0.485 µM [inhibitor, full curve]"
same,"activity change, negative = inhibition",[6],inconclusive: -19.1%
same,activation,[2],inconclusive: 7.68%
same,Potency,[3],"inconclusive: 43.2 µM [activator, partial curve]"
C[C@]12CC[C@@H]3c4ccc(OC(=O)N(CCCl)CCCl)cc4CC[C@H]3[C@@H]1CC[C@@H]2O,Potency,[1],"inconclusive: 21.1 µM [cytotoxic, partial curve, poor fit]"
same,Potency,[7],"inconclusive: 13.3 µM [falling, partial curve, poor fit]"
same,Potency,[5],"inconclusive: 29.8 µM [fluorescent, partial curve, poor fit]"
same,"activity change, negative = inhibition",[6],inconclusive: -26.3%
same,activation,[2],inconclusive: 3.44%
same,Potency,[3],"inconclusive: 26.8 µM [activator, single point]"
